# Among all 420,000 compounds or so, about 64,000 (15%) were called active. This list was built around the results that the source calls inconclusive (neither active nor inactive); the mix of calls is not that of the screen. The call rests on the fitted dose curve; in most records, active means well fitted inhibition curve with a large enough effect; inconclusive means small, poorly fitted or top-dose-only effect; inactive means flat fitted curve, though single readings scatter. No potency is given beside an inconclusive call; the fits are too rough.
# Test: qHTS for Inhibitors of human tyrosyl-DNA phosphodiesterase 1 (TDP1): qHTS in cells in absence of CPT; further: nearly all actives have a fitted effect of over 55% in size
# Details: DT40 Tdp1-/- hTDP1 cells, no CPT, ATP luminescence, 48 h; activity change, negative = growth inhibition: at 46.2 µM (top of the series) unless noted
# Method in brief: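 Cells were dispensed at 400 per well, compounds added by pin tool, plates incubated ≥48 hr at 37 °C, then CellTiter-Glo added for 30 min at room temperature before luminescence reading. Line: DT40 Tdp1-/- complemented with hTDP1; camptothecin omitted.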
# On the % scale 0 is the no-effect control and ±100 the full control effect; potency means the concentration at half of the fitted maximal effect; tags describe the fitted curve by direction and shape.
SMILES,Potency,"activity change, negative = growth inhibition"
COc1ccc(/C=C(\NC(=O)c2ccc(C)cc2)C(=O)NCCCN2CCOCC2)cc1OC,inactive,
N#C/C(=C\c1ccc(-c2ccccc2C(=O)O)o1)c1nc2ccccc2[nH]1,active: 14.6 µM,
COc1ccc(/C=C/c2nc3ccccc3n2C)cc1,active: 8.2 µM,
CCOC(=O)c1ccccc1NC(=O)c1cc2ccccc2o1,"inconclusive [inhibitor, single point]",
CC1(C(=O)N/N=C/c2ccccc2)CC1(Br)Br (centres undefined),"inconclusive [inhibitor, single point]",
CCC(=O)Nc1ccc2c(c1)ncn2-c1ccc(C)cc1,inactive,
Cc1c(NC(=O)/C(C#N)=C/c2ccc(-c3ccc(Cl)cc3)o2)c(=O)n(-c2ccccc2)n1C,active: 14.6 µM,
S=C(NCc1ccccn1)Nc1ccc(Cl)cc1Cl,inactive,
COc1ccc(C(=O)N2CCc3cc(OC)c(OC)cc3C2c2cccc([N+](=O)[O-])c2)cc1OC (centres undefined),active: 18.4 µM,
CCOc1ccc(-n2c(SCC(=O)Nc3ccc4c(c3)OCO4)nc3ccccc3c2=O)cc1,"inconclusive [inhibitor, single point]",
CC(C)C(=O)Nc1nc(-c2ccc3c(c2)CCN3C(=O)C2CC2)cs1,active: 13 µM,
COC(=O)c1ccc(NCCc2csc(-c3ccc(C)cc3)n2)c([N+](=O)[O-])c1,inactive,
O=S(=O)(Nc1cccc(Cl)c1)c1ccc2[nH]c3c(c2c1)CCCCCC3,"inconclusive [inhibitor, single point]",
COc1ccccc1N1CCN(C(=O)c2cc3c(=O)n4ccccc4nc3s2)CC1,"inconclusive [inhibitor, partial curve]",
COc1ccc(N2CCN(C(=O)Cc3coc4ccc(C)cc34)CC2)cc1,"inconclusive [inhibitor, single point]",
CCc1ccc(CNC(=O)c2ccc(CSc3nc4ccncc4n3Cc3ccc(OC)cc3)cc2)cc1,"inconclusive [inhibitor, single point]",
CCc1noc(-c2ccc(NC(C)c3ccccc3)c([N+](=O)[O-])c2)n1 (centres undefined),"inconclusive [inhibitor, single point]",
O=C(c1cc(-c2ccc(Cl)s2)nc2ccccc12)N1CCOCC1,inactive,
Brc1cccc[n+]1Cc1ccccc1C[n+]1ccccc1Br,inactive,
COc1ccc(N2CCN(c3ccc(Cl)nn3)CC2)cc1,,inconclusive: -34.6% [inhibitor]
Cc1ccc(CNC(=O)C2c3ccccc3C(=O)N(C)C2c2c[nH]c3ccccc23)o1 (centres undefined),active: 14.6 µM,
CCOC(=O)c1c(NC(C)=O)c2c3c(sc2n1Cc1nc(-c2ccc(Cl)cc2)oc1C)CCCC3,inactive,
c1ccc2c(-c3nnc4n3CCCCC4)cc(-c3ccncc3)nc2c1,inactive,
CCCCCCN1C=CC=C/C1=C\C=C(C#N)C#N,inactive,
CCCNS(=O)(=O)c1ccc(CCC(=O)N2CCCCC2)cc1,"inconclusive [inhibitor, single point]",

SMILES,Potency,"activity change, negative = growth inhibition"
O=C(/C=C/c1ccc(Br)o1)OCc1ccccc1,inactive,
CC(C)Oc1cccc(NC(=O)C2CCN(S(=O)(=O)Cc3ccccc3)CC2)c1,"inconclusive [inhibitor, single point]",
CCN(CC(=O)NC(C)(C)C)C(=O)COc1c(Cl)cc(Cl)c2ccc(C)nc12,active: 13 µM,
COc1ccc(C(=O)OCc2cc(=O)oc3cc(C)ccc23)cc1S(=O)(=O)N1CCOCC1,"inconclusive [inhibitor, full curve, poor fit]",
CCCOc1cccc(C(=O)Nc2ccc3c(c2)OCCO3)c1,active: 23.1 µM,
CC1CCN(C(=O)c2ccc(NS(=O)(=O)c3cccc4cccnc34)cc2)CC1,"inconclusive [inhibitor, single point]",
Nc1nc(-c2cc(O)ccc2[N+](=O)[O-])cc(-c2ccccc2)c1[N+](=O)[O-],active: 8.2 µM,
CCCNC(=O)CSc1n[nH]c(=O)n1CCc1ccccc1,inactive,
Cc1nc(N2CCCC2)c2c(C(=O)Nc3ccc(C)c(Cl)c3)c(C)oc2n1,"inconclusive [inhibitor, single point]",
Cc1nn(C)c(C)c1CNC(=O)c1cc2n(n1)C(C(F)(F)F)CC(c1cccs1)N2 (centres undefined),active: 5.8 µM,
COc1ccc2c(C=O)c[nH]c2c1,inactive,
COC(/C(=N/O)c1ccc(Cl)cc1)c1ccccc1 (centres undefined),active: 23.1 µM,
COc1ccc(N2C(=O)C3C(C2=O)C(C(=O)c2ccc(Cl)cc2)N2CCCC32)cc1 (centres undefined),"inconclusive [inhibitor, single point]",
CCOc1ccc(C(=O)Nc2c(C(=O)c3ccccc3)oc3ccccc23)cc1,inactive,
COc1ccc(C2CC(=O)c3cnc(NC(=O)c4cc(OC)cc(OC)c4)nc3C2)cc1 (centres undefined),"inconclusive [inhibitor, partial curve]",
COCC(C)OC(=O)c1c(N)n(CC(C)C)c2nc3ccccc3nc12 (centres undefined),"inconclusive [inhibitor, single point]",
O=C(Nc1ccccc1)Nc1ccc2ocnc2c1,inactive,
COc1ccc(-c2noc(CN(C)C(=O)Nc3ccccc3)n2)cc1,"inconclusive [inhibitor, single point]",
CC1CCN(C(=O)Nc2ccc3nsnc3c2)CC1,inactive,
CC1CCC(NC(=O)Nc2cccs2)CC1 (centres undefined),inactive,
COc1ccc2c(C(=O)CN3CCN(c4ccccc4)CC3)c[nH]c2c1,inactive,
COc1ccc([C@H]2[C@H](C(=O)C(C)(C)C)N3N=Cc4ccccc4C3C23C(=O)OC(C)(C)OC3=O)cc1 (some centres undefined),"inconclusive [inhibitor, single point]",
Cc1cc(NC(=O)CS(=O)(=O)c2cn(Cc3cccc(Br)c3)c3ccccc23)no1,"inconclusive [inhibitor, single point]",
COc1cc(C(=O)NCc2ccc3c(c2)cc(C)n3C)cc(OC)c1OC,"inconclusive [inhibitor, single point]",

# — PubChem BioAssay AID686978 (National Center for Advancing Translational Sciences (NCATS), 2013)
